Laboratory results as given in PubChem BioAssay AID488969 (Vanderbilt High Throughput Screening Facility, 2010).
Over roughly 110,000 compounds, “z-score” has its median near -0.1; the highest 2% begin near 2. The list shows a part of the results.

What follows are compounds tested against Metabotropic glutamate receptor 8 (Rattus norvegicus) (UniProt P70579) (assay: rat mGluR8 modulators via GIRK flux, primary screen, cell-based, thallium flux, HTS (AID 488969)). Conditions: HEK293 rat mGluR8, GIRK (G protein-gated inwardly rectifying potassium channel) thallium flux, FluoZin2; at 10 µM; stronger effect = higher value; submaximal glutamate (EC20) added with thallium.
Chain of UniProt P70579 (P70579 whole entry, looked up): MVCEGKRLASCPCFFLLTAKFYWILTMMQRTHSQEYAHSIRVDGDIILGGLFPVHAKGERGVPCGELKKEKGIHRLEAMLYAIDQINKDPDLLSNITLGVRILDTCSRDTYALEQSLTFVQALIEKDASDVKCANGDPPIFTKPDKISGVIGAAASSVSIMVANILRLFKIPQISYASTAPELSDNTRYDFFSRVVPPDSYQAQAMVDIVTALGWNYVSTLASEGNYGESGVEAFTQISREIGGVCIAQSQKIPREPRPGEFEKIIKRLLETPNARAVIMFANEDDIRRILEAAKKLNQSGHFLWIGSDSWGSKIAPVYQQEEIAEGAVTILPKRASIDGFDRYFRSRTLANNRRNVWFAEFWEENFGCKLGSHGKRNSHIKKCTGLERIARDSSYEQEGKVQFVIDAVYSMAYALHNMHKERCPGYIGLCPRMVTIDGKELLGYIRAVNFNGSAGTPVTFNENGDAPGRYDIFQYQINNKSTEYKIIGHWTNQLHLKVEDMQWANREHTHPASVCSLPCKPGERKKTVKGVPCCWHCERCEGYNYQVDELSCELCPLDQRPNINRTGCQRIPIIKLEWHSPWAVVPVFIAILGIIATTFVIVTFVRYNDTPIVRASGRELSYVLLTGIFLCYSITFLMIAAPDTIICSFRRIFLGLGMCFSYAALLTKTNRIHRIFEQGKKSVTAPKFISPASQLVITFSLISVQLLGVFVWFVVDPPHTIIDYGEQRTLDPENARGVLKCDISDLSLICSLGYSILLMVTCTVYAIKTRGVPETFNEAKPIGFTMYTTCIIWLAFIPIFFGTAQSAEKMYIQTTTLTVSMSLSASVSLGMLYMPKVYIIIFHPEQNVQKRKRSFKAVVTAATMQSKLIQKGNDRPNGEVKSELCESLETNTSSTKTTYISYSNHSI
`COc1ccc(-c2[nH]nc3c2C(c2ccncc2)C(C#N)=C(N)O3)cc1` (centres undefined) gave a z-score of 0.984. Compound `CCOc1cc(-c2nc(-c3ccc(C)nc3OCC)no2)cc(OCC)c1OCC` has a z-score of -0.655. In the case of `Cc1sc(NC(=O)C(C)C)c(C(=O)Nc2ccccc2)c1C`, the z-score is reported as 0.0376. Compound `COc1ccc(/C=N/OCC(=O)NCc2cccs2)c(OC)c1` has a z-score of 0.168. Work on `CCCCNC(=O)C1=C(N)C(C(=O)Nc2ccc(C)c(S(=O)(=O)N3CCCCC3)c2)SC1=Nc1ccc(C)cc1C` (centres undefined) yielded a z-score of 0.356. Compound `CN1CCN(CC(=O)Nc2ccc(OCc3ccccc3)cc2)CC1` has a z-score of 0.0182. For `Cc1nn(CCCC(=O)N2CCc3ccccc3C2)c(=O)c2cc3sccc3n12`, the z-score was -0.368. `COc1ccc(C2=NN(C(=O)CSc3ncccn3)C(c3ccc(C)cc3)C2)cc1` (centres undefined) gave a z-score of -0.339. In the case of `Cc1cccc(NC2SC(=O)N(c3ccccc3)C2=O)c1` (centres undefined), the z-score is reported as 0.175. With `CC(=O)NCC(=O)N(Cc1ccco1)C1(C(=O)NC2CCCCC2)CCCCC1` the z-score was -0.599. In the case of `O=C(NCCc1cn2ccsc2n1)C1CCCCC1`, the z-score is reported as -0.227. `O=C1NC2(CCCCCC2)C(=O)N1Cc1ccc([N+](=O)[O-])cc1` showed a z-score of -0.301. Work on `COCCNC(=O)CS(=O)Cc1nc(-c2ccccc2C)oc1C` (centres undefined) yielded a z-score of -0.599. Compound `CCc1c(C)nc2cc(-c3ccc(OC)c(OC)c3)nn2c1NCC1CC1` has a z-score of -0.434. Work on `CCOC(=O)c1ccc(CNC(=O)C(Cc2c[nH]c3ccccc23)NC(C)=O)o1` (centres undefined) yielded a z-score of 0.631. `O=C(CSc1nc(C2CC2)nc2ccccc12)N1CCc2ccccc2C1` gave a z-score of -0.769. In the case of `O=C(N1CCCC1)C12CCC3CC(CC(C3)C1)C2`, the z-score is reported as -0.0329. For `CC(NC(=O)Cc1cccs1)C(c1cccs1)N1CCOCC1` (centres undefined), the z-score was -0.108. `COc1ccc2[nH]c(=O)c(CN(Cc3cccs3)Cc3nnnn3C(C)(C)C)cc2c1` was tested, and the z-score was -0.312. `CCC(C)(C)n1nnnc1C(c1ccccc1)N1CCc2ccccc2C1` (centres undefined) was tested, and the z-score was -0.432. `Cn1c(=O)c2cc(S(=O)(=O)NC(C(=O)NC3CCCCC3)c3ccccc3)ccc2n(C)c1=O` (centres undefined) gave a z-score of -0.26. With `FC(F)(F)c1cc(C(F)(F)F)n2nc(-c3sccc3-n3cccc3)cc2n1` the z-score was -0.214. Compound `COc1cccc(/C=N/n2c(N)c(S(=O)(=O)c3cccs3)c3nc4ccccc4nc32)c1` has a z-score of -0.0122. With `Cc1csc(NC(=O)c2ccccc2C(=O)O)n1` the z-score was 0.151. `COC(=O)c1ccc(NC(=O)Cn2nnc3ccccc32)cc1` gave a z-score of 0.448. With `O=C(Nc1ccccc1Oc1ccccc1)c1cnccn1` the z-score was -0.466. Work on `Cc1ccc(-c2ccc(NC(=O)C3C4C=CC(C4)C3C(=O)O)cc2)o1` (centres undefined) yielded a z-score of -0.0584. `COc1ccc(S(=O)(=O)N2CCCC(C(=O)NCc3ccco3)C2)cc1Cl` (centres undefined) showed a z-score of -0.122. `Cc1cccc(OCC(=O)Nc2nonc2NC(=O)COc2cccc(C)c2)c1` gave a z-score of -0.126.
